From paper PMC8874776
No constants are given. Whether binding was seen depends on the method and setting. Some entries that bind do so weakly or less than the wild type. Where a sequence is shown, tags or fusion partners need not be part of it.

B1: truncated VOZ1, VOZ1^96-310, in the vector pGADT7 (AD) (domain or fragment, UniProt Q9SGQ0 96-310)
chain: DEEDDATSKLAAPKPEPADQNLEAGKAAVFQRGYNLVQGKSEHGLPLVDNCKDLSLAAGNNFDGTAPLEYHQQYDLQQEFEPNFNGGFNNCPSYGVVEGPIHISNFIPTICPPPSAFLGPKCALWDCPRPAQGFDWFQDYCSSFHAALAFNEGPPGMNPVVRPGGIGLKDGLLFAALSAKAGGKDVGIPECEGAATAKSPWNAPELFDLTVLESE
B2: full-length PHL3 in the vector pGADT7 (AD) (protein, UniProt Q8LAJ7 1-292)
chain: MYSAIRSSLPLDGSLGDYSDGTNLPIDACLVLTTDPKPRLRWTSELHERFVDAVTQLGGPDKATPKTIMRTMGVKGLTLYHLKSHLQKFRLGRQSCKESIDNSKDVSCVAESQDTGSSSTSSLRLAAQEQNESYQVTEALRAQMEVQRRLHEQLEVQRRLQLRIEAQGKYLQSILEKACKAIEEQAVAFAGLEAAREELSELAIKASITNGCQGTTSTFDTTKMMIPSLSELAVAIEHKNNCSAESSLTSSTVGSPVSAALMKKRQRGVFGNGDSVVVGHDAGWVMPSSSIG
B3: full-length FSD1 in the vector pGADT7 (AD) (protein, UniProt P21276 1-212)
chain: MAASSAVTANYVLKPPPFALDALEPHMSKQTLEFHWGKHHRAYVDNLKKQVLGTELEGKPLEHIIHSTYNNGDLLPAFNNAAQAWNHEFFWESMKPGGGGKPSGELLALLERDFTSYEKFYEEFNAAAATQFGAGWAWLAYSNEKLKVVKTPNAVNPLVLGSFPLLTIDVWEHAYYLDFQNRRPDYIKTFMTNLVSWEAVSARLEAAKAASA
B4: full-length VOZ1 in the vector pGADT7 (AD) (protein, UniProt Q9SGQ0 1-486)
chain: MTGKRSKTNCRSASHKLFKDKAKNRVDDLQGMLLDLQFARKESRPTDVTLLEEQVNQMLREWKSELNEPSPASSLQQGGTLGSFSSDICRLLQLCDEEDDATSKLAAPKPEPADQNLEAGKAAVFQRGYNLVQGKSEHGLPLVDNCKDLSLAAGNNFDGTAPLEYHQQYDLQQEFEPNFNGGFNNCPSYGVVEGPIHISNFIPTICPPPSAFLGPKCALWDCPRPAQGFDWFQDYCSSFHAALAFNEGPPGMNPVVRPGGIGLKDGLLFAALSAKAGGKDVGIPECEGAATAKSPWNAPELFDLTVLESETLREWLFFDKPRRAFESGNRKQRSLPDYNGRGWHESRKQIMVEFGGLKRSYYMDPQPLHHFEWHLYEYEINKCDACALYRLELKLVDGKKTSKGKVSNDSVADLQKQMGRLTAEFPPENNTTNTTNNNKRCIKGRPKVSTKVATGNVQNTVEQANDYGVGEEFNYLVGNLSDYYIP

Molecular target: PRU2 (PHOSPHATE RESPONSE UBIQUITIN E3 LIGASE 2), full length, in the bait vector pGBKT7 (BD) (Arabidopsis thaliana) (UniProt Q6NQG7)
Test: two-hybrid; pairwise test: preys in pGADT7 co-transformed with pGBKT7-PRU2 into yeast strain AH109, SD/-Leu/-Trp/-His medium

binding | Binder
binds | B1
binds | B2
binds | B3
no binding | B4
